Source: PubChem BioAssay (NCATS)
Where “and” joins values, the source holds several entries; their conditions need not be identical. Equal entries are not always repeated. The list shows a part of the results. These are further read-outs of the screen, such as a control signal, another cell line or another target. No call is given for them. For some of these results: Most of these compounds were active or inconclusive in the main read-out, so they are no random draw. Words in brackets tell the shape of the fitted curve; partial curves, single points and poor fits give uncertain potencies.

Tests used:
[1] = qHTS drug screen for cell cycle checkpoint inhibitors in PARPi-resistant BRCA-mutant ovarian cancer cell lines. (AID 1963452); conditions: PEO1/OlaR viability, CellTiter-Glo luminescence, 96 h
Outline: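 PEO1, PEO4 and PEO1/OlaR ovarian cancer cells, 600 per well, exposed 96 h at 37C to a dilution series. Viability read by CellTiter-Glo luminescence, normalized to DMSO and empty wells; activity summarized as Z-AUC.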

[2] = qHTS for identification of novel therapeutic agents for treatment of microphthalmiaassociated transcription factor (MiT) renal cell carcinoma (RCC) (AID 1963991); conditions: CellTiter-Glo, 48 h; for z-score: stronger effect = lower value;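 on z-score: curves scaled with 100% = DMSO viability and 0% = empty wells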
Outline: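 UOK109/UOK124/UOK145 (TFE3 fusions, three partners); 500 cells/well; MIPE v4.0, 1912 cpds, 11 conc.; 48 h, 37 C; CellTiter-Glo, 15 min RT; lum. Norm.: DMSO 100%, empty 0%.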

[3] = measured here: PEO1 parental viability
[4] = TFE3-RCC UOK109 viability, measured here: UOK109 Z-AUC
[5] = TFE3-RCC viability, measured here: UOK124 Z-AUC
[6] = TFE3-RCC viability, measured here: UOK124 cell viability
[7] = TFE3-RCC viability, measured here: UOK145 Z-AUC
[8] = TFE3-RCC viability, measured here: UOK145 cell viability
Tags describe the fitted curve by direction and shape.

| SMILES | AC50 [1, 3] | AC50 ([1]; measured here: PEO4 viability) | z-score [2, 4] | z-score [2, 5] | AC50 [2, 6] | z-score [2, 7] | AC50 [2, 8] |
| --- | --- | --- | --- | --- | --- | --- | --- |
| OC[C@H](Cc1ccccc1)Nc1nc(Oc2ccc3c(c2)CCC3)nc2c1ncn2Cc1ccc(-c2ccccc2)cc1 | 4.9 µM [falling, full curve, poor fit] | 15.5 µM [falling, partial curve, poor fit] | 0.0101 | -0.0635 | 11.8 µM [falling, partial curve, poor fit] | -0.0791 | 5.9 µM [falling, partial curve, poor fit] |
| NC(=O)Nc1cc(-c2ccc(CN3CCOCC3)cc2)sc1C(N)=O | 6.16 µM [falling, partial curve] | 1.55 µM [falling, full curve] | 0.63 | 0.435 | 18.7 µM [falling, partial curve] | 0.225 | 18.7 µM [falling, partial curve] |
| Cc1cnc(Nc2ccc(N3CCN(C)CC3)cc2)nc1Nc1cccc(S(=O)(=O)NC(C)(C)C)c1 | 4.36 µM [falling, full curve] | 4.9 µM [falling, partial curve] | -0.76 | -1.02 | 5.9 µM [falling, full curve] | -0.127 | 14.8 µM [falling, partial curve] |
| CNC(=O)c1cc(Oc2ccc(NC(=O)Nc3ccc(Cl)c(C(F)(F)F)c3)c(F)c2)ccn1 | 13.8 µM [falling, partial curve] | 24.5 µM [falling, single point] | 0.0684 | -1.5 | 23.5 µM [falling, partial curve, poor fit] | -1.06 | 37.2 µM [falling, single point] |
| CC1=C[C@@H]2[C@@H]([C@@H](O)C[C@@]3(C)[C@H]2C[C@@H](C)[C@]3(O)C(=O)CO)[C@@]2(C)Cc3cnn(-c4ccccc4)c3C=C12 | 19.5 µM [falling, single point] | 12.3 µM [falling, partial curve] | -0.285 | 0.107 | 18.7 µM [falling, partial curve] | 0.197 | 33.2 µM [falling, single point] |
| O=C(O)c1ccc2cc(-c3ccc(O)c(C45CC6CC(CC(C6)C4)C5)c3)ccc2c1 | 0.174 µM [falling, full curve] | 0.275 µM [falling, full curve] | 0.00617 | -1.91 | 1.48 µM [falling, full curve] | -0.635 | 2.96 µM [falling, full curve] |
| CC(C)Oc1ccc(C(=O)N[C@H](CNC(=O)CN(C)C)Cc2ccc(-c3cn4cccc([C@H](C)O)c4n3)cc2)cc1Cl | 0.11 µM [falling, full curve, poor fit] | 0.0616 µM [falling, full curve, poor fit] | 0.0146 | 0.139 | 16.6 µM [falling, partial curve, poor fit] | -0.57 | 0.833 µM [falling, full curve] |
| O=C(Nc1cn[nH]c1-c1nc2ccc(CN3CCOCC3)cc2[nH]1)NC1CC1 | 3.09 µM [falling, full curve] | 0.0977 µM [falling, full curve] | -1.93 | -0.994 | 1.66 µM [falling, partial curve] | -0.443 | 8.33 µM [falling, partial curve] |
| Oc1ccc([C@@H]2Oc3ccc(O)cc3[C@@H]3CCC[C@@H]32)cc1 | 5.49 µM [falling, full curve] | 4.9 µM [falling, full curve] | 1.16 | -0.101 | 16.6 µM [falling, partial curve] | -0.106 | 23.5 µM [falling, single point] |
| CC(C)CC(=O)Nc1n[nH]c2c1CN(C(=O)C1CCN(C)CC1)C2(C)C | 4.9 µM [falling, full curve] | 2.45 µM [falling, full curve] | -1.12 | 0.239 | 5.26 µM [falling, full curve] | -1.1 | 3.32 µM [falling, full curve] |
| CCC(C(=O)O)C1CCC(C)C(C(C)C(O)C(C)C(=O)C(CC)C2OC3(C=CC(O)[C@@]4(CC[C@](C)(C5CC[C@@](O)(CC)C(C)O5)O4)O3)C(C)CC2C)O1 (some centres undefined) | 0.49 µM [falling, partial curve] | 0.174 µM [falling, full curve] | -0.7 | -0.925 | 0.743 µM [falling, full curve] | -0.117 | 4.69 µM [falling, partial curve] |
| COc1cc([C@@H]2c3cc4c(cc3[C@@H](O[C@@H]3O[C@@H]5CO[C@@H](C)O[C@@H]5[C@H](O)[C@@H]3O)[C@H]3COC(=O)[C@H]23)OCO4)cc(OC)c1O | 0.871 µM [falling, full curve] | 5.49 µM [falling, partial curve] | 0.2 | -0.348 | 4.69 µM [falling, full curve] | -0.956 | 4.18 µM [falling, full curve] |
| C=CC(=O)Nc1cc2c(Nc3ccc(F)c(Cl)c3)ncnc2cc1OCCCN1CCOCC1 | 4.9 µM [falling, partial curve] | 3.09 µM [falling, full curve] | -2.92 | -1.13 | 14.8 µM [falling, partial curve] | -0.326 | 18.7 µM [falling, partial curve] |
| CN1CCN(c2cc(C(=O)Nc3ccc4c(c3)-c3c(c(C(N)=O)nn3-c3ccc(F)cc3)CC4)c(Cl)cn2)CC1 | 24.5 µM [falling, single point] | 19.5 µM [falling, single point] | -1.15 | -0.0695 | 18.7 µM [falling, partial curve] | -0.664 | 16.6 µM [falling, partial curve] |
| O=C(Nc1nc2cccc(-c3ccc(CN4CCS(=O)(=O)CC4)cc3)n2n1)C1CC1 | 24.5 µM [falling, single point] | 24.5 µM [falling, single point] | 0.804 | -0.0758 | 33.2 µM [falling, partial curve, poor fit] | 0.222 | 23.5 µM [falling, single point] |
| COc1cccc2c1C(=O)c1c(O)c3c(c(O)c1C2=O)C[C@@](O)(C(=O)CO)C[C@@H]3O[C@H]1C[C@H](N)[C@H](OC2CCCCO2)[C@H](C)O1 (some centres undefined) | 1.95 µM [falling, partial curve, poor fit] and 155 nM [falling, full curve] | 13.8 µM [falling, partial curve] and 436 nM [falling, full curve] | -0.146 | -0.744 | 1.18 µM [falling, full curve] | -0.401 | 2.64 µM [falling, full curve] |
| N#CC1(c2cccc(C(=O)Nc3cc(Oc4ccc5nc(NC(=O)C6CC6)sc5n4)ccc3F)c2Cl)CC1 | 0.692 µM [falling, full curve] | 3.47 µM [falling, single point] | -0.611 | 0.821 | 4.69 µM [falling, full curve] | -0.0429 | 5.9 µM [falling, partial curve] |
| c1ccc(CNc2nc(NCc3ccccc3)c3ccccc3n2)cc1 | 19.5 µM [falling, partial curve] | 4.36 µM [falling, full curve] | -0.312 | -0.0997 | 26.4 µM [falling, partial curve] | -0.306 | 14.8 µM [falling, partial curve] |
| CCOC(CN1C(=O)[C@](CC(=O)Nc2ccc(C)cc2)(NC(=O)Nc2ccc(C)cc2)c2ccccc21)OCC | 24.5 µM [falling, single point] | 24.5 µM [falling, single point] | 0.0417 | 0.572 | 20.9 µM [falling, partial curve] | 0.0574 | 37.2 µM [falling, single point] |
| CN1CCN(Cc2ccc(NC(=O)Nc3ccc(Oc4cc(NC(=O)C5CC5)ncn4)cc3)cc2C(F)(F)F)CC1 | 0.0436 µM [falling, full curve] | 0.0174 µM [falling, full curve, poor fit] | -0.521 | -2 | 3.32 µM [falling, partial curve, poor fit] | -2.03 | 1.66 µM [falling, full curve] |
| O=C(Nc1cccc(Nc2ncc(Br)c(NCCc3cnc[nH]3)n2)c1)N1CCCC1 | 19.5 µM [falling, partial curve] | 8.71 µM [falling, partial curve] | 1.46 | 1.39 | 16.6 µM [falling, partial curve] | 0.496 | 18.7 µM [falling, partial curve] |
| COc1cc(C)c(Sc2cnc(NC(=O)c3ccc(CNC(C)C(C)C)cc3)s2)cc1C(=O)N1CCN(C(C)=O)CC1 (centres undefined) | 13.8 µM [falling, partial curve] | 13.8 µM [falling, partial curve] | 1.05 | -0.695 | 16.6 µM [falling, partial curve] | -0.524 | 23.5 µM [falling, partial curve] |
